Data as given in PubChem BioAssay AID1346428 (National Center for Advancing Translational Sciences (NCATS), 2018).
Values joined by “and” are separate entries in the source; they are usually repeats but may differ in a detail not shown here. Equal entries are not always repeated. Among all 48,000 compounds or so, about 1,200 (2.5%) were called active. Not shown: some 2% with an inconclusive outcome.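 How the source made its calls: active means activation of at least 60% and not above a set upper limit (about 1 call in 100 departs from these limits); inconclusive means activation of 40% to 60%, or above that upper limit; inactive means activation under 40%.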 Some of the results follow.
Further: 0% is about no effect.

What follows are compounds tested against Probable G-protein coupled receptor 32 (Homo sapiens) (UniProt O75388) (assay: qHTS for Agonists of Human Resolvin D1 Receptor DRV1). Conditions: CHO-K1 GPR32 beta-arrestin PathHunter luminescence, 90 min; at 76.9 µM; active compounds read high; zero percent set by DMSO-only wells.
Chain of UniProt O75388 (O75388 whole entry, looked up): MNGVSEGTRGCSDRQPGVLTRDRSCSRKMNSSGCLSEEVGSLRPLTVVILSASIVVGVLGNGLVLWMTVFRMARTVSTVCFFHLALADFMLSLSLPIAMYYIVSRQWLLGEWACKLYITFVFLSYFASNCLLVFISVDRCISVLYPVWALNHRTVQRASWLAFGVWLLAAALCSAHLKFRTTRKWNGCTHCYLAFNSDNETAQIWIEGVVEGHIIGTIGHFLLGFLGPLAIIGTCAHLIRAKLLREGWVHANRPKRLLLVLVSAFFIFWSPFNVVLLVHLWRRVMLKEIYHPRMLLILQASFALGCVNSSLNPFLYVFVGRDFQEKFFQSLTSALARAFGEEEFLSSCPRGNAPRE
How it was run: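 Readings come from a cell-based beta-arrestin complementation format: CHO-K1 GPR32 stable cells (2,500/well) treated 90 min with compounds, then beta-Gal substrate added for 1 h before chemiluminescence imaging.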
O=C(Nc1ccc(F)cc1F)c1c2c(nc3ccccc13)C(=O)N(C1CCCCC1)C2 was tested, and the activation was inactive: -2.58%.
Cc1ccc(N2CCN(C(=O)c3ccc4c(Cl)c5c(nc4c3)CCCC5)CC2)c(C)c1 was tested, and the activation was inactive: -4.5%.
With O=C(CSc1nc2c([nH]c3ccccc32)c(=O)n1-c1ccccc1)c1ccccc1 the activation was inactive: -18.3%.
With O=C(Nc1c(-c2ccccc2)nc2ccccn12)c1ccc(Br)cc1 the activation was inactive: 13.4%.
With O=C(NCc1cccs1)C1CCN(C(=O)N2CCOc3ccccc32)CC1 the activation was inactive: -6.96%.
For Cc1ccc(N(CC(=O)N2CCN(c3ccc(Cl)cc3)CC2)S(=O)(=O)c2c(C)noc2C)cc1, the activation was inactive: 10.5%.
In the case of CCOC(=O)c1cc(OC(=O)c2ccc(Cl)cc2)n(-c2ccccc2)n1, the activation is reported as inactive: 12.2%.
COc1ccc(-c2nn(CC(=O)Nc3ccccc3F)c3c2cnc2ccc(F)cc23)cc1 was tested, and the activation was inactive: 25.6%.
In the case of COc1ccc(C2C(=O)N(C3CCCCC3)CC(=O)N2Cc2ccccc2Cl)cc1OC (configuration not stated), the activation is reported as inactive: -9.35%.
For COc1ccc(CN2COc3ccc4c(-c5ccc(OC)cc5)cc(=O)oc4c3C2)cc1, the activation was inactive: -5.06%.
In the case of CCc1ccc(-n2nc(C)c3c(C(=O)NCCc4ccc(OC)c(OC)c4)cc(C)nc32)cc1, the activation is reported as inactive: -16.6%.
With COc1ccc(N2CCN(S(=O)(=O)CCNC(=O)c3ccc(C(F)(F)F)cc3)CC2)cc1 the activation was inactive: 1.1%.
CCN(CC)CCNC(=O)c1cc(Cl)c(N)cc1OC was tested, and the activation was inactive: -16.1% and inactive: -1.05%.
COc1ccc(CNC(=O)Cn2ncn3nc(-c4cccs4)cc3c2=O)cc1 was tested, and the activation was inactive: -2.82%.
Cc1ccc(-c2nc(S(=O)(=O)c3ccc(C)cc3)c(N3CCN(c4ccccc4)CC3)o2)cc1 was tested, and the activation was inactive: -26.4%.
For Cc1ccc(C)c(N2CCN(CCCNC(=O)Cn3ncc4c([nH]c5ccccc54)c3=O)CC2)c1, the activation was inactive: 9.75%.
CCc1ccc(CNC(=O)c2ccc3nc(C(C)C)oc3c2)cc1 was tested, and the activation was inactive: -21.4%.
For CC(=O)N1CCC2(CC1)OC(=O)C(C)=C2C(=O)NCc1ccc(Cl)cc1, the activation was inactive: -3.53%.
For Cc1nn(-c2nc(-c3ccc(F)cc3)cc(C(F)(F)F)n2)c(C)c1Cl, the activation was inactive: -18.8%.
CC1=NN(c2ccccc2)C(=O)C1 was tested, and the activation was inactive: 49.3%.
O=C(Nc1ccc2oc(-c3cccnc3)nc2c1)c1ccc(-c2ccccc2)o1 was tested, and the activation was inactive: -0.531%.
For COc1ccc(OC(C)c2nc3ccccc3[nH]2)cc1 (configuration not stated), the activation was inactive: -4.9%.
For CCCc1ccc(OCC(=O)N2CCN(C(=O)COc3ccc(CCC)cc3OC)CC2)c(OC)c1, the activation was inactive: -5.16%.
In the case of CCc1ccc(NC(=O)C(=O)NCC(c2cccnc2)N2CCN(C)CC2)cc1 (configuration not stated), the activation is reported as inactive: 3.34%.
In the case of COc1cc(NC(=O)C(CC(C)C)NS(=O)(=O)c2ccc3c(c2)oc(=O)n3C)c(C(=O)O)cc1OC (configuration not stated), the activation is reported as inactive: 10%.
In the case of CCOC(=O)c1ccc(NC(=O)c2csc3c2CCCCC3)cc1, the activation is reported as inactive: 7.98%.
CCOc1ccc(NC(=O)Cn2cc(C(=O)c3ccc(C)c(C)c3)c(=O)c3cc(OC)c(OC)cc32)cc1 was tested, and the activation was inactive: 2.44%.
COC(=O)c1ccc(Cl)cc1NC(=O)N(C)CCc1c(C)nn(C)c1C was tested, and the activation was inactive: -0.905%.
With CCOc1ccc(NC(=O)C(=O)NCCc2csc3nc(-c4ccccc4F)nn23)cc1 the activation was inactive: 14.5%.
For Cc1ccc(CN2CCN(C3CCN(S(=O)(=O)c4ccc(C)cc4)CC3)C(=O)C2=O)cc1, the activation was inactive: -10.5%.
O=c1cc(-c2ccc(F)cc2)nc(SCc2nc(-c3ccccc3Cl)no2)[nH]1 was tested, and the activation was inactive: -10.5%.
With CCC1CCCCN1C(=O)CSc1nc2c([nH]c3ccccc32)c(=O)n1-c1cccc(OC)c1 (configuration not stated) the activation was inactive: -2.74%.
In the case of Cc1ccc(-n2ccnc(NCCc3ccc(S(N)(=O)=O)cc3)c2=O)cc1C, the activation is reported as active: 95.2%.
With Cc1oc(-c2cccc(Cl)c2)nc1CSc1nc2ncccc2[nH]1 the activation was inactive: -2.72%.
In the case of COc1ccc(CCn2c3c(c(=O)[nH]c2=O)C(NC(=O)c2ccccc2OC)(C(F)(F)F)C(=O)N3)cc1OC (configuration not stated), the activation is reported as inactive: 19.9%.
In the case of COc1cc(C(=O)Nc2ccc(NC(=O)c3ccc(Br)cc3)cc2)cc(OC)c1OC, the activation is reported as inactive: 38%.
In the case of Cc1cccc(N2CCN(C(=O)c3cc4c(=O)n(C)c5ccccc5c4s3)CC2)c1C, the activation is reported as inactive: 44.5%.
In the case of O=C(O)c1ccc2nc(-c3cc4cc(F)ccc4oc3=O)[nH]c2c1, the activation is reported as inactive: 11.6%.
With O=C(COc1ccccc1Cl)Nc1ccc(Cl)c(-c2nc3ccccc3o2)c1 the activation was inactive: -16.4%.
With CCOc1ccc(-c2cc(NC(=O)c3ccc(C)cc3)c(C(=O)OC)s2)cc1 the activation was inactive: 3.46%.
For Cc1cc(C)cc(-n2c(SCC(=O)NCC3CCCO3)nc3c([nH]c4ccccc43)c2=O)c1 (configuration not stated), the activation was inactive: -15.9%.
COc1ccc2c(c1)-c1nc(NC(=O)c3ccc(C)cc3)sc1CC2 was tested, and the activation was inactive: -22.9%.
With Cn1cnc2c1c(=O)[nH]c(=O)n2C the activation was inactive: -11.1% and inactive: -1.12%.
CCCC(=O)C1=C(c2ccc(C)c(C)c2)N(C(=O)CCC)n2c(CC)nnc2S1 was tested, and the activation was inactive: -59.3%.
COc1ccc(-c2noc(-c3ccc(NCCc4ccccc4)c([N+](=O)[O-])c3)n2)cc1OC was tested, and the activation was inactive: -1.25%.
For N#C/C(=C\c1c[nH]c2ccccc12)C(=O)c1ccc(O)c(O)c1, the activation was inactive: -5.74%.
CC(C)c1ccc(NS(=O)(=O)c2ccc3[nH]cc(C(=O)N4CCCC4)c(=O)c3c2)cc1 was tested, and the activation was inactive: 4.24%.
In the case of CCn1ccc2cc(S(=O)(=O)N3CCCN(C(=O)Nc4cc(Cl)ccc4C)CC3)ccc21, the activation is reported as inactive: 33.7%.
In the case of COc1ccc(OC)c(CNC(=O)CCCn2nc(C)c3c(C)n(-c4ccc(C)cc4)nc3c2=O)c1, the activation is reported as inactive: -5.37%.
For O=C(Cn1ncc2c3ccccc3n(Cc3ccccc3)c2c1=O)Nc1ccccc1C(F)(F)F, the activation was inactive: 9.56%.
In the case of CCOc1ccc(NC(=O)Nc2ccc3snnc3c2)cc1, the activation is reported as active: 86.9%.
In the case of COc1cccc(CNC(=O)Cc2c(C)c3c(cc(C)c4c(C)coc43)oc2=O)c1, the activation is reported as inactive: -4.62%.
